These compounds were tested on dendritic cells (assay: Induction of IL-12 secretion in dendritic cells (ELISA)). Conditions: ELISA of supernatant, compounds 50 μg/ml and 20 μg/ml.
Assay type: cell-based, BALB/c mice
With `OC[C@H]1NC[C@H](O)[C@@H](O)[C@@H]1O` [1-Deoxynojirimycin (DNJ) (21), 1-Deoxynojirimycin, reference compound] the “IL-12 RELEASE” value was “No”. With `OC[C@@H]1[C@@H](O)[C@H](O)[C@H]2[C@@H](O)[C@@H](O)CN21` [7-epi-casuarine (11), 7-epi-casuarine] the “IL-12 RELEASE” value was “Yes”. In the case of `O[C@H]1[C@H](O)[C@@H](O)CN2CC[C@H](O)[C@H]12` [Castanospermine (20), Castanospermine, reference compound], the “IL-12 RELEASE” value is reported as “No”. For `O[C@H]1[C@H]2[C@H](O)CCCN2C[C@H]1O` [Swainsonine (4), Swainsonine, reference compound], the “IL-12 RELEASE” value was “No”. With `OCCN1C[C@@H](O)[C@H](O)[C@H]1CO` [drawing 50] the “IL-12 RELEASE” value was “Yes”. `OCC1O[C@H](O[C@H]2CN3[C@@H]([C@@H](O)[C@H](O)[C@H]3CO)[C@@H]2O)C(O)C(O)[C@@H]1O` (stereo partly drawn) [casuarine-6-α-D-glucopyranose (9), casuarine-6-α-D-glucopyranose] was tested, and the “IL-12 RELEASE” value was “Yes”. With `OC[C@@H]1[C@@H](O)[C@H](O)[C@H]2[C@H](O)[C@@H](O)CN21` [casuarine (8)] the “IL-12 RELEASE” value was “Yes”. With `OC[C@H]1[C@@H](O)[C@H](O)[C@H]2[C@@H](O)[C@@H](O)CN21` [3,7-diepi-casuarine (10), (1R,2R,3S,6S,7R,7aR)-3-(hydroxymethyl)-1,2,6,7-tetrahydroxypyrolizidine] the “IL-12 RELEASE” value was “Yes”. With `OC[C@H]1[C@@H](O)[C@H](O)[C@H]2[C@H](O)[C@@H](O)CN21` [3-epi-casuarine (14), 3-epi-casuarine] the “IL-12 RELEASE” value was “Yes”. `OC[C@H]1[C@@H](O)[C@H](O)[C@H]2[C@@H](O)CCN21` [3,7a-diepialexine (23), 3,7a-diepialexine, reference compound] was tested, and the “IL-12 RELEASE” value was “No”. With `OCCN1[C@H](CO)[C@@H](O)[C@H](O)[C@H]1CO` [N-hydroxyethyl DMDP, N-hydroxyethyl-2,5-dihydroxymethyl-3,4-dihydroxypyrrolidine] the “IL-12 RELEASE” value was “Yes”. With `OC[C@@H]1[C@@H](O)[C@H](O)[C@H]2[C@@H](O)CCN21` [7-epialexine (22), 7-epialexine, reference compound] the “IL-12 RELEASE” value was “No”. In the case of `OC[C@H]1N[C@H](c2ccc(O)cc2)[C@@H](O)[C@@H]1O` [drawing 51], the “IL-12 RELEASE” value is reported as “Yes”.
